Experimental data from PubChem BioAssay (NCI).
Where “and” joins values, the source holds several entries; their conditions need not be identical. Equal values may be shown once.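 Step 1: Grow cells in 96-well plates. Step 2: Expose to compound for 48 hours at 5 concentrations. Step 3: Interpolate endpoints linearly; if unreached, use highest concentration. Abbreviation: GI50, concentration required for 50% inhibition of growth. TGI: total growth inhibition.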

Test system: NCI-H322M lung
Test: growth of human tumour cells (NCI), 48 h

SMILES	TGI	GI50
C=CCC1C(=O)C(C(=O)OC)N2CCc3c([nH]c4ccccc34)C12 (stereo not given)	> 100 µM	–
COc1ccc(-c2cnoc2-c2ccc(OC)c(OC)c2)cc1OC	> 29.8 µM	–
COC1C(O)C(C)OC(OC2C(Oc3cccc4c(O)c5c(=O)oc6ccc(C)c7c(=O)oc(c34)c5c67)OC(C)C3O[C@H](c4ccccc4)OC32)C1O (stereo not given in full)	8.04 µM	–
Cc1onc(-c2c(F)cccc2Cl)c1-c1ncc(-c2ccc(Cl)cc2)o1	> 100 µM	> 100 µM
O=S(=O)(C(=Ic1ccccc1)S(=O)(=O)C(F)(F)C(F)(F)C(F)(F)C(F)(F)F)C(F)(F)C(F)(F)C(F)(F)C(F)(F)F	33.7 µM	–
C[n+]1noc(/N=N\[O-])c1-c1cc(-c2c(/N=N\[O-])on[n+]2C)cc(-c2c(/N=N/[O-])on[n+]2C)c1	> 100 µM	–
COc1cc(NS(C)(=O)=O)ccc1Nc1c2ccccc2nc2c(C)cccc12	18.8 µM and 17.3 µM	3.76 µM and 3.2 µM
CC1(c2cccc3c2C2(O)C=CC4(CCC32)OCCO4)OCCO1 (stereo not given)	> 100 µM	–
O=C(O)c1c[nH]c2c(=O)[nH]cnc12	> 100 µM	–
COc1cc2cc[n+](C)c(Cc3ccccc3)c2cc1OC	> 100 µM	–
CC1CC(=O)Nc2cc(Cl)ccc2N1C(=O)C1CC1 (stereo not given)	> 100 µM	–
CC1(C)OCC2(CO1)CSCCCSCC1(COC(C)(C)OC1)CSCCCSC2	> 100 µM	–
CC(C)(C)[Si](C)(C)OCC1CCC(n2cnc3c(=O)[nH]cnc32)O1 (stereo not given)	> 100 µM	–
O=c1oc2cc(N=Cc3ccccc3Cl)ccc2c2ccccc12	> 100 µM	–
CC1=C(C)C(=O)C2=C(OCCCO2)C1=O	> 100 µM	–
CC(=O)OCCOCNC(=S)N/N=C/c1ccc2ccccc2n1	> 100 µM	–
CC1(C)OC(=O)[C@@](C)([C@H](O)c2ccccc2)O1	> 100 µM	–
COc1ccc(-c2cc(-c3ccccc3)n(C3OCC(OC(C)=O)C(OC(C)=O)C3OC(C)=O)c(=S)c2C#N)cc1 (stereo not given)	> 100 µM	–
Cc1nc(Cl)c(Cl)c(Cl)n1	2.26 µM	–
CCOC(=O)N1CCN(c2c(C)nc(C)[nH]c2=O)CC1	> 100 µM	–
COC(=O)CCC(C)[C@H]1CCC2C3C(C[C@H](OC(C)=O)[C@@]21C)[C@@]1(C)CCC2(C[C@H]1C[C@H]3OC(C)=O)OOC1(CCC(C)CC1)OO2 (stereo not given in full)	> 100 µM	–
Cc1cc(=O)oc2c(CN3CCCCC3)c(O)ccc12	> 100 µM	–
O=[N+]([O-])c1cc([N+](=O)[O-])c(Cl)c(Cl)c1Cl	25.9 µM	12.4 µM
COC(=O)[C@H]1[C@H]2C[C@@H]3c4[nH]c5cc(OC)ccc5c4CCN3C[C@H]2C[C@@H](OC(=O)c2cc(OC)c(OC)c(OC)c2)[C@@H]1OC	46.7 µM	–

SMILES	TGI	GI50
NC(N)=NS(=O)(=O)c1ccc(Nc2c3ccccc3nc3c(C(=O)N4CCN(CCO)CC4)cccc23)cc1	> 100 µM	–
N#Cc1nc(C2CC2)oc1N	> 100 µM	–
O=C(CCCn1c(=O)c2sc3ccccc3c2n2nnc(-c3ccccc3)c12)NCCc1cnc[nH]1	5.54 µM	2.25 µM
Cc1ccc(NC(=O)CC/C(CC(=O)C(C)(C)C)=N/NC(=O)C(N)=O)cc1C	> 100 µM	–
O=C(O)CN=C(C(=NCC(=O)O)c1ccccc1)c1ccccc1	> 100 µM	–
CCN(CC)CCNc1ccc2ncn3c4c(OC)ccc(OC)c4c(=O)c1c23	26.3 µM	–
CC(C)N(C(=O)C12C3C4C5C3C1(C(=O)N(C(C)C)C(C)C)C5(C#N)C42)C(C)C (stereo not given)	> 100 µM	–
COC1(C(C)(C)C)C=C(C(C)(C)C)P(=O)(O)O1 (stereo not given)	> 100 µM	–
Cc1cccc2[nH]c3cc(O)cc(O)c3c(=O)c12	> 10 µM	–
Cc1cc(Cc2cc(C)c(O)c(C)c2)cc(C)c1O	85.6 µM	12.1 µM
COc1ccc(C[n+]2c3ccccc3n3c4ccc(N)cc4ccc32)c(OC)c1OC	90.4 µM	14.1 µM
Nc1ccc2c(c1)C1=NNC(=O)CC1C2 (stereo not given)	> 100 µM	–
C[C@@]12c3c4ccc(C=O)c3Oc3ccc(C=O)c(c31)Oc1c(C=O)ccc(c12)O4	> 100 µM	–
CN(C)CCNc1ccc2ncnc3c2c1C(=O)c1ccccc1-3	1.72 µM	–
O=c1[nH][nH]c(=O)[nH]1	> 100 µM	–
Cc1cc2cccnc2c2ncccc12	4.96 µM	0.597 µM
N#Cc1nc(CSCc2ccccc2)oc1N	> 100 µM	–
O=C(c1ccco1)C1CC(c2ccc3ccccc3c2O)=NN1 (stereo not given)	> 100 µM	–
O=C1c2cccc3cccc(c23)C(=O)N1CCCNCCCCNCCCN1C(=O)c2cccc3cccc(c23)C1=O	1.75 µM	–
Cc1c(/C=N/NC(=S)Nc2cccc(Cl)c2)c(=O)n(-c2ccccc2)n1C	> 100 µM	–
CCC1=C(C)/C(=C/c2[nH]c(C(Br)Br)c(CC)c2C)N=C1C(Br)Br	> 100 µM	–
CSc1c(C#N)c(O)n(-c2ccc(C)cc2)c(=O)c1C#N	> 100 µM	–
O=C(CCN1CCOCC1)Nc1ccc(F)cc1F	> 100 µM	–
CCOC(=O)c1cc(/C=C/C(C)=C/C(=O)OC)oc1-c1ccccc1	> 100 µM	–

SMILES	TGI	GI50
CCC[C@H](O)[C@@H](CNc1cc(NC(C)=O)nc(NC(C)=O)n1)N(Cc1ccccc1)Cc1ccccc1	75 µM	–
CCCCCCCC(=O)OC[C@@H](C[As](=O)(O)O)OC(=O)CCCCCCC	27 µM	–
COC(=O)c1ccc(Oc2nc3ccccc3nc2-c2cccs2)cc1	> 100 µM	–
COc1cccc(/C(CC(O)(C(F)(F)F)C(F)(F)F)=N\N(C)C)c1	> 100 µM	–
Nc1ncnc2c1ncn2C1OC(CSC(F)(F)F)C(O)C1O (stereo not given)	> 100 µM	–
COc1c(C2=NC(C(C)C)CO2)ccc2ccccc12 (stereo not given)	> 100 µM	–
c1cc(-c2csc(-c3ccsc3)c2)cs1	> 100 µM	–
Nc1ccc(-c2ncc3cc(-c4cccc(-c5cc6cnc(-c7ccc(N)cc7)nc6c6ccccc56)c4)c4ccccc4c3n2)cc1	> 100 µM	–
N=C(N)C1CN(CCc2cnc[nH]2)C(=O)NC1=O (stereo not given)	> 100 µM	–
COc1ccc2c(c1)[C@]1(C[C@H]1c1ccc3c(/C=C/c4ccc(CN5C[C@@H](C)O[C@@H](C)C5)cc4)n[nH]c3c1)C(=O)N2	> 100 µM	> 100 µM
CC(CN(C)C)C(=O)c1ccccc1C(=O)O (stereo not given)	> 100 µM	–
CN(C)/C(N)=N/C(N)=Nc1cccc(Cl)c1	> 100 µM	–
COc1cc2ccccc2c2cc([N+](=O)[O-])oc12	7.78 µM	–
N=CCCN(CCC=N)c1ccc(/C=C2\CN(NC(=O)c3ccc(Cl)cc3)C(c3ccccc3)=N2)cc1	> 100 µM	–
CC(=O)Nc1ccc(-c2c3nc(c(-c4cc5ccccc5[n+](C)c4)c4ccc([nH]4)c(-c4ccc(NC(C)=O)cc4)c4nc(c(-c5cc6ccccc6[n+](C)c5)c5ccc2[nH]5)C=C4)C=C3)cc1	> 50 µM	> 50 µM
Clc1ccccc1C(n1ncc2ccccc21)n1ncc2ccccc21	> 100 µM	–
COc1cc(-c2nn(-c3ccc(NC(=O)Nc4ccc(Cl)c(Cl)c4)cc3)cc2-c2ccncc2)ccc1Cl	81.5 µM	6 µM
Cc1ccc(C2CC(c3ccc([N+](=O)[O-])cc3)=Nc3ccccc3S2)cc1 (stereo not given)	> 100 µM	–
CCOc1cc(-c2nc3ccccn3c2/N=C/c2cc([N+](=O)[O-])cc([N+](=O)[O-])c2O)ccc1O	> 100 µM	–
O=C(/C=C/c1ccccc1)c1c[nH]c2ccccc2c1=O	13.4 µM	3.57 µM
CCCCCCCC(=O)OC[n+]1ccc(-c2c(COC(=O)NC(C)C)c(COC(=O)NC(C)C)c3n2CCC3)cc1	> 100 µM	–
O=C(COc1ccc(/C=C2\Oc3ccccc3C2=O)cc1)Nc1nccs1	> 100 µM	> 100 µM
O=C1c2cccc3cc([N+](=O)[O-])cc(c23)C(=O)N1NC1=NCCN1	> 100 µM	–
O=S(=O)(Nc1cc(Br)c(O)c2ccccc12)c1ccc(F)cc1	31.5 µM	17.3 µM
